Assay results: ChEMBL document CHEMBL4888484, “Replenishing the malaria drug discovery pipeline: Screening and hit evaluation of the MMV Hit Generation Library 1 (HGL1) against asexual blood stage Plasmodium falciparum ,using a nano luciferase reporter read-out” (2022)
In all, about 150,000 compounds went through this assay and about 540 (0.36%) showed an effect of 50% or more. The list shows a part of the results.

What follows are compounds tested on Plasmodium falciparum (assay: Primary screen in NF54 nanoGlo assay, in single point, at 2uM, 72h; a lower Z score goes with more inhibition). Details: timepoint 72 hour.
Type: functional, Erythrocyte

Row | Compound | % Inhibition | Z score
1 | Cn1c(C(=O)N2CCOCC2)c(-c2ccc(Cl)cc2)c2cc(Cl)ccc21 | -24% | 2.15
2 | O=C(NC1CCCCC1)N1CC[C@H](n2ccnn2)C1 | -10% | 1.77
3 | CC(C(=O)O)c1cccc(NC(=O)C2CCc3cc(F)ccc32)c1 (stereo not drawn) | 12% | -1.46
4 | Cc1nc(C(C)C)sc1CNC(=O)CCn1ccc(=O)[nH]c1=O | -14% | 1.92
5 | COc1ccc(N(Cc2cccs2)S(=O)(=O)c2ccccc2Cl)cc1 | -17% | 2.12
6 | CCCCn1nc(C)cc1NC(=O)NCC(F)(F)F | -11% | 2.09
7 | Cc1nc(C)c(CC(=O)N2CCN(c3ccccc3)CC2)c(=O)[nH]1 | -33% | 3.87
8 | Cc1ccc(CS(=O)(=O)N2CCC[C@H]2c2ncc(C)n2Cc2cccnc2)cc1 | 0% | 0
9 | Cc1cccc(-c2cc(-c3cccc(C)c3)n(-c3nc(-c4ccccc4)cs3)n2)c1 | 7% | -1.07
10 | Cc1ccc(-c2nn(CC(=O)NC3CCCCC3)c3c2cnc2ccccc23)cc1 | -7% | 1.18
11 | Cc1c(NCC(=O)NC(=O)NCC(C)C)cccc1C(N)=O | -8% | 1.03
12 | CCn1cc(S(=O)(=O)N2CCC(CCc3nc(C4CCOCC4)no3)CC2)cn1 | -15% | 2.09
13 | COc1ccc(N(C(=O)C2CCCCC2)c2nc(-c3ccc(C)cc3)c(C)s2)c(OC)c1 | -13% | 1.67
14 | Cc1ccn2c(C(=O)NCc3csc(C)n3)nnc2n1 | -17% | 2.72
15 | CCc1ccc(NC(=O)Cn2nc3c(Oc4ccc(C)cc4)nc4ccccc4n3c2=O)cc1 | -10% | 1.47
16 | COc1cc(NC(=O)c2csc(-c3ccnc(N4CCOCC4)c3)n2)cc(OC)c1 | -7% | 0.88
17 | CC(C)Cc1cc(NC(=O)[C@@H]2CC(F)(F)CN2)[nH]n1 | -6% | 0.8
18 | Cc1cnc(CCNC(=O)NC(C)CC(O)c2ccccc2)s1 (stereo not drawn) | -1% | 0.12
19 | N#CCCCC(=O)Nc1ccc(N2CCOCC2=O)c(NC(=O)CCCC#N)c1 | 1% | -0.24
20 | CC(C)(C)c1nc(-c2cccnc2)cs1 | -5% | 0.97
21 | CCc1csc(-c2cn(CC(=O)Nc3ccccc3CC)cn2)n1 | -5% | 0.58

Row | Compound | % Inhibition | Z score
22 | Cc1c(-c2cc(C(=O)NCCc3noc(C(F)(F)F)n3)no2)cnn1C | -4% | 0.53
23 | Cc1ccc(CN(Cc2ccccc2)C(=O)CN(CC(C)C)C(=O)Nc2ccc(F)c(F)c2)o1 | -4% | 0.58
24 | O=C(c1nc2sccn2c1CN1CCc2sccc2C1)N1CCCC1 | 8% | -1.64
25 | CO[C@H]1CCN(C2CCN(C(=O)CCc3ccc(C)c(C)c3)CC2)C1 | -9% | 1.16
26 | Cn1cnc2ccc(NC(=O)c3cc(C4CC4)[nH]c3C3CC3)cc21 | 8% | -1.29
27 | COc1cc(OC)cc(-c2cc(C(=O)N3CCCCC3)ccn2)c1 | 5% | -0.48
28 | Cc1cc(C(N)=O)c(-c2c(C)n[nH]c2C)nc1C | -18% | 1.69
29 | CCn1nccc1C(=O)N1CCC(Cc2ccc(C(=O)NC3CC3)cc2)CC1 | -4% | 0.52
30 | C[C@H]1CCN(CCOc2ccc(NC(=O)c3cnccn3)cc2)C1 | 1% | -0.25
31 | Cc1cc(C(F)(F)F)c(C(N)=O)c(N)n1 | -3% | 0.48
32 | COc1ccncc1CNC(=O)c1c(C)nn(C)c1OC[C@H]1CCCCO1 | -19% | 1.92
33 | Cc1nccc(N2CCOc3ccccc3[C@@H]2C)n1 | -10% | 1.47
34 | c1cc(-c2nc([C@H]3CCOC3)nn2C2CCCCC2)co1 | -4% | 0.4
35 | CCNC(=O)C1CN(C(=O)c2nnn(Cc3ccc(F)cc3)c2C)C1 | -10% | 1.93
36 | CN(C)c1nc(NCCc2nc(-c3cccnc3)n[nH]2)ncc1F | 4% | -0.79
37 | CN1CC[C@H](NC2CCN(c3ccccc3Cl)CC2)C1 | -1% | 0.19
38 | CN(Cc1ccccc1)[C@H]1CCOC2(CCN(C(=O)c3ccco3)CC2)C1 | -13% | 1.64
39 | COc1cccc(N2C(=O)[C@@H]3CCCN3[C@H]2c2ccc(N(C)C)cc2)c1 | 6% | -0.81
40 | O=C(Cn1cnc2nc(N3CCOCC3)sc2c1=O)Nc1ccc(Cl)cc1 | -13% | 1.57
41 | Cc1ccccc1[C@@H](C)C(=O)NCC1(O)CCS(=O)(=O)CC1 | -4% | 0.84
42 | Cc1cc(NC(=O)CCn2cnc(C)c(C)c2=O)no1 | -7% | 1.18

Row | Compound | % Inhibition | Z score
43 | CCOC(=O)N1CCC(NC(=O)c2ccc(N3C(=O)[C@@H](C)CS3(=O)=O)cc2Cl)CC1 | -7% | 0.86
44 | COc1ccc(-c2cccc(-n3cncc3C(=O)N3Cc4ccccc4C3)c2)cc1OC | -1% | 0.08
45 | CCCCC[C@H](C)NC(=O)CCC(=O)Nc1cccnc1 | 31% | -4.03
46 | CN(CCNC(=O)c1ccc(-c2cnn(C)c2)cc1)S(C)(=O)=O | -3% | 0.58
47 | CC(C)OCCCNc1cc(N2CCC[C@H]2C(N)=O)ncn1 | -4% | 0.81
48 | Cc1ccc(S(=O)(=O)NCC2(CNS(=O)(=O)c3ccc(C)cc3)CN(S(=O)(=O)c3ccc(C)cc3)C2)cc1 | 37% | -4.72
49 | CCCN(Cc1nc(COC)c(Cc2ccc(C)cc2)c(=O)[nH]1)C(=O)NC(C)(C)C | -20% | 1.96
50 | CN1CCOC2CN(C(=O)c3ccc(C#N)[nH]3)CC21 (stereo not drawn) | -13% | 1.53
51 | CC(C)(CC(=O)O)CC(=O)Nc1ccc(Cc2nnc3ccccn23)cc1 | 34% | -1.08
52 | C=CC[C@H](C)NC(=O)c1c(Br)cccc1Br | 0% | -0.08
53 | Cc1ccc(CN2CCN(CC3CCCCC3)[C@@H](CCO)C2)o1 | -17% | 1.48
54 | COc1ccc(N2CCN3c4cc(Cl)ccc4CC4(C(=O)N(c5ccc(C)cc5)N=C4C)C3C2)cc1 (stereo not drawn) | -5% | 0.71
55 | COc1cccc(CN2CCC[C@@]3(CCN(C(=O)c4ccsc4)C3)C2)c1 | -5% | 0.92
56 | O=C(NC1CCOCC1)c1cccc(Oc2nccs2)c1 | -1% | 0.2
57 | Cc1noc(C)c1CCC(=O)N1CCN(c2ncnc3c2CCC3)CC1 | -13% | 2.15
58 | CCc1noc(CCNC(=O)Nc2nc(CC)n(C)n2)n1 | -15% | 1.99
59 | Cc1n[nH]nc1C(=O)Nc1nc(Cc2ccc(F)cc2F)ns1 | -17% | 1.48
60 | CCNC(=O)N(Cc1nccn1Cc1ccc(Cl)c(Cl)c1)CC1CC1 | -7% | 0.84
61 | Cc1ocnc1C(=O)Nc1cccc(N2C(=O)CC[C@@H]2C)c1 | 4% | -0.7
62 | Cc1ccc(-c2noc(CCc3nc(-c4ccc(C)cc4)no3)n2)cc1 | 0% | -0.05
63 | O=C(NCC(=O)N1CCCC1)c1nc2cccnc2s1 | -9% | 1.22

Row | Compound | % Inhibition | Z score
64 | Cc1cccc2c1OCC[C@H]2NC(=O)Cn1cnc2c1CCNC21CCOCC1 | -5% | 0.76
65 | O=C(C[C@@H]1Nc2ccccc2NC1=O)Nc1ccc(OC(F)(F)F)cc1 | -4% | 0.57
66 | O=C(CCC(=O)c1ccccc1)Nc1ccc(-c2cc[nH]n2)cc1 | -5% | 0.74
67 | Nc1sc(=O)n(Nc2ccc(S(N)(=O)=O)cc2)c1N1CCOCC1 | -36% | 4.17
68 | COc1ccc(C(=O)N2CCN(c3nc4cc(C)ccc4o3)CC2)nn1 | -9% | 1.7
69 | O=C(c1noc2c1CCCC2)N1C[C@@H]2CCS(=O)(=O)[C@@H]2C1 | -10% | 1.34
70 | CC(C)CCN1CCN([C@H]2CCN(CCc3ccccc3)C2=O)CC1 | -6% | 0.82
71 | Cn1nc(C2CC2)nc1-c1csc2c1CCCC2 | -3% | 0.45
72 | Cc1ccc2c(c1)NC(=O)[C@@H](CC(=O)N1CCN(c3cccc(C)c3C)CC1)CO2 | -2% | 0.31
73 | CC(C)CN(C1CCN(C)CC1)C1CN(C(=O)NCCc2ccccc2)C1 | -11% | 1.45
74 | O=C(CCn1ccccc1=O)N1CCCCCC1 | 6% | -0.93
75 | CC(C)(C)OC(=O)NC[C@H]1CCN(Cc2ccncc2Cl)C1 | -12% | 2.31
76 | COCc1nc(C(=O)N[C@@H](C(C)C)C2(CO)CCCC2)cs1 | -2% | 0.22
77 | COC1(CNc2nc3ccccc3[nH]2)CCOCC1 | -15% | 1.7
78 | CCOC(=O)N1CCN(C(=O)c2cccn3c(=O)c4cc(Cl)ccc4nc23)CC1 | -14% | 1.66
79 | CC1CCN(C(=O)[C@H]2CCC[C@H]2NC(=O)c2ccncc2)CC1 | -15% | 1.95
80 | O=C(NCCc1nc2ccccc2[nH]1)N1CCO[C@H](c2ccc(F)cc2F)C1 | -8% | 1.47
81 | C[C@H](Oc1ccccn1)c1nc(C2(c3ccncc3)CCC2)no1 | 0% | -0.07
82 | Cc1ccc(CNC(=O)c2[nH]ncc2C(F)(F)F)n1C | -1% | 0.24
83 | O=C(Nc1ccc2c(c1)OCO2)c1ccc(S(=O)(=O)N2CCCC2)cc1 | -1% | 0.13
84 | Cc1ccc(OCC(=O)Nc2ccccc2C(F)(F)F)nc1 | -23% | 4.66
